# Some of the results follow. These are noisy estimates, calculated here from bound and input reads.
# Biological target: T1, Pho4 (S. cerevisiae) (UniProt P07270)
# T1 sequence: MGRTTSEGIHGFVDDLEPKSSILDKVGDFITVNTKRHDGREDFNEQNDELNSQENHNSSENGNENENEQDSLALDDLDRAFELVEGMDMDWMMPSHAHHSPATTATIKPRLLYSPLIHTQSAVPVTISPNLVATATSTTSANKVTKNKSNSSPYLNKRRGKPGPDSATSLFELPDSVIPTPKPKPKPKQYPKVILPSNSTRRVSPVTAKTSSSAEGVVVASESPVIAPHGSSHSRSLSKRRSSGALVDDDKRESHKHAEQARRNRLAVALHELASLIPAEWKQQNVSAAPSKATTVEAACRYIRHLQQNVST
# Assay: relative binding free energy (BET-seq); higher = weaker binding
# Conditions: reference: library average
row,Sequence,relative binding free energy [kcal/mol]
1,ATTCACACGTGGTTGG,0.06
2,GGTTTCACGTGCGTTC,0.13
3,TTGCTCACGTGTGCTG,0.25
4,GCGGGCACGTGGATGG,0.01
5,TATGGCACGTGATGGA,-0.07
6,TGGTGCACGTGGAATT,-0.01
7,GGTATCACGTGGTCAT,0.35
8,ATATACACGTGAGATG,0.33
9,TTAGTCACGTGACGGT,0.11
10,TGGTTCACGTGATTGG,0.54
11,GCTGTCACGTGGGTTT,0.09
12,TGTGGCACGTGGTCTA,-0.27
13,GGTCTCACGTGTGGGC,0.27
14,TGCGACACGTGGTTGT,0.08
15,GATGGCACGTGCGCGA,-0.06
16,CATTACACGTGGGCGG,-0.06
17,ATTGACACGTGATATG,0.12
18,GCGTACACGTGTGTTG,0.13
19,GATTACACGTGGAGAG,0.21
20,GGGTTCACGTGCTAAG,0.29
21,CAGTCCACGTGGGGTT,-0.08
22,TTTTGCACGTGTTAAA,0.03
23,TGGGGCACGTGGATTG,-0.03
24,CAGGTCACGTGGAATG,0.29
25,CGTAACACGTGGGGGT,-0.2
26,TGTGTCACGTGATAGT,0.19

row,Sequence,relative binding free energy [kcal/mol]
1,TGTGGCACGTGGTTTC,-0.21
2,TTATCCACGTGGGATG,-0.07
3,TAGTACACGTGTAGAG,0.06
4,GATTTCACGTGGTCAG,0.27
5,CGTTTCACGTGTAGAT,0.37
6,TGGCGCACGTGGCGTC,-0.15
7,TTTTGCACGTGCGTAA,-0.15
8,CGTCTCACGTGGGTTT,-0.03
9,CATTTCACGTGAGGCG,0.43
10,ATATGCACGTGCGTTG,-0.19
11,TATAGCACGTGTGGAC,0.14
12,TTGGGCACGTGAATAC,0.13
13,GGACGCACGTGTCAGG,-0.01
14,AGGATCACGTGTGCAG,0.2
15,TGTTGCACGTGCTGGG,-0.2
16,AACGGCACGTGCGGTG,-0.14
17,ATTGTCACGTGTCGGA,-0.08
18,ATAGGCACGTGATGGA,-0.14
19,GTGGTCACGTGTGCGT,0.05
20,ACGAGCACGTGGTCGG,-0.07
21,GTTGACACGTGTTCAT,0.03
22,ATAGGCACGTGGGTAT,-0.26
23,CTCGGCACGTGCTGTG,0.01
24,GATGTCACGTGTGTTG,0.18
25,TACAGCACGTGAAGGT,0.15
26,GTATGCACGTGTAGCG,0.09

row,Sequence,relative binding free energy [kcal/mol]
1,AGTTGCACGTGATGCA,-0.07
2,AGTTGCACGTGGGAGT,-0.08
3,GGTACCACGTGAGGGA,0.1
4,TAGTTCACGTGCTGTT,0.22
5,GATTGCACGTGTGTAG,0
6,CAGGACACGTGGGGAT,0.02
7,ATAGACACGTGGGTCG,-0.03
8,CTATGCACGTGTGAGT,0.09
9,TGGGTCACGTGTCTGT,0.2
10,ATATCCACGTGTGGTT,-0.02
11,GGAGACACGTGAAGGG,0.28
12,GGAGTCACGTGGGGTG,0.04
13,TAGGTCACGTGAGAGT,0.35
14,ATGAGCACGTGGGTTA,-0.17
15,GGTGGCACGTGCGGGT,-0.06
16,CGTATCACGTGAGTTT,0.4
17,TTGTACACGTGGCTTT,0.03
18,ACTGGCACGTGGATGT,-0.07
19,AGGATCACGTGTAGGT,0.24
20,TTGCACACGTGGAATG,0.16
21,ATACACACGTGAGGTG,0.24
22,TGCCGCACGTGGATGG,0.01
23,GAGGGCACGTGAAGGG,0.26
24,TTGATCACGTGCTGGA,0.24
25,TAATGCACGTGGGCCG,-0.19
26,TTTGCCACGTGGGCTG,-0.31

row,Sequence,relative binding free energy [kcal/mol]
1,TTGGTCACGTGTGTGG,0.16
2,GCTTGCACGTGGTATA,-0.09
3,ATTGGCACGTGCTGGA,-0.13
4,AGTCTCACGTGGTATA,0.13
5,CTTGACACGTGTTAGG,0.12
6,TTGCACACGTGGGTTA,-0.15
7,TGGCTCACGTGGATTG,0.25
8,AAGGACACGTGAAGTG,0.33
9,TGGTGCACGTGCGCTA,-0.15
10,GAAGTCACGTGGTTCG,0.16
11,TAGCTCACGTGGTATA,0.19
12,GTGAGCACGTGTTTGA,-0.09
13,TAGTACACGTGGGGCA,-0.04
14,CTTATCACGTGATGGG,0.2
15,GTAAGCACGTGGCTTG,-0.09
16,GGATACACGTGAGATG,0.29
17,ATAATCACGTGGTGAG,0.12
18,AGGTTCACGTGGGGCC,0.15
19,ATGGTCACGTGCTTGA,0.14
20,CGACGCACGTGGGGAG,-0.17
21,TTTGGCACGTGAAAAG,0.08
22,AATGGCACGTGGCTGA,-0.23
23,ATCTTCACGTGTGGAT,0.15
24,CTTGGCACGTGCTTTG,-0.17
25,TTTTGCACGTGTGTTG,0.1
26,GTTCACACGTGTGTGT,0.26

row,Sequence,relative binding free energy [kcal/mol]
1,ACGGGCACGTGCATGG,-0.17
2,GGTCGCACGTGATATG,0.13
3,AATGACACGTGGGTCT,-0.14
4,GTAGTCACGTGGGTAC,-0.04
5,GTTTTCACGTGTGTAA,0.45
6,GCGGCCACGTGTGTTT,0.14
7,CGTGGCACGTGTGTAT,-0.08
8,TCATACACGTGTGCGT,0.06
9,GGAAGCACGTGGTATT,-0.16
10,AAGTGCACGTGTATGG,-0.04
11,GTGGTCACGTGTTAAA,0.28
12,AGGTGCACGTGATAGA,-0.01
13,CGTGACACGTGTTTTA,-0.06
14,ATAATCACGTGGCTTG,0.04
15,GTGGTCACGTGGCGGT,0.25
16,TCTTTCACGTGTTGGT,0.3
17,GTTTGCACGTGAAGCA,0.22
18,TAATTCACGTGATCGG,0.26
19,AGATTCACGTGGACGT,0.36
20,GAGTTCACGTGAGTTT,0.36
21,ATGTCCACGTGAGTGG,0.19
22,TGTTCCACGTGGGAGA,-0.02
23,TCGTGCACGTGGTGAT,-0.02
24,AGGTCCACGTGTGGTA,0.11
25,GTTTGCACGTGGTCGT,-0.05
26,GTTACCACGTGGGGGA,-0.15

row,Sequence,relative binding free energy [kcal/mol]
1,GGTCCCACGTGGTGTT,-0.2
2,TAGGCCACGTGGTAAG,-0.13
3,TATGGCACGTGGGGTA,-0.25
4,GTCTGCACGTGGGGTT,-0.16
5,GGTTACACGTGTTATA,0.09
6,AGGGGCACGTGGCGGG,-0.1
7,AAGTCCACGTGTAGGT,-0.08
8,GTATGCACGTGTTGGA,0.09
9,GTAGGCACGTGTGTTA,-0.04
10,AGTGCCACGTGAAGAG,0.18
11,TCAGGCACGTGAGTTG,0.12
12,AATAACACGTGTGGTG,0.01
13,CGATTCACGTGGGGAT,0.19
14,TCCGTCACGTGGATTG,0.26
15,AGTGGCACGTGATAAT,0.07
16,ATCATCACGTGTAGTT,0.08
17,CGGATCACGTGAAGTG,0.26
18,TGCGGCACGTGTCGTA,-0.16
19,TATTTCACGTGTTTAC,0.09
20,AAGTGCACGTGTGGGC,-0.02
21,TATACCACGTGGGTGT,-0.28
22,GCGCTCACGTGGGCGG,0.14
23,TTTTTCACGTGGGCAG,0.16
24,GAGAGCACGTGGAGGC,0.01
25,GCGTTCACGTGGGTGG,0.17
26,ATTATCACGTGGATAA,0.15

row,Sequence,relative binding free energy [kcal/mol]
1,CGTGGCACGTGTTAAA,0.07
2,TTATGCACGTGGTGTA,-0.21
3,AGTTTCACGTGGAAGG,0.43
4,AGTGCCACGTGGGTAG,-0.27
5,AAAAGCACGTGTAGTT,-0.04
6,AGAAGCACGTGACGTT,0.24
7,TTTATCACGTGGAAAG,0.12
8,TTATTCACGTGTGCTT,0.25
9,CAGTTCACGTGTGCAG,0.32
10,GGGGTCACGTGCATGG,0.12
11,CATGACACGTGGGGAT,-0.14
12,ACTGGCACGTGGTGTG,-0.24
13,GTATGCACGTGTGGGG,0.08
14,CTTGTCACGTGAATTG,0.34
15,ATTATCACGTGAGGAG,0.31
16,GATTTCACGTGATGTA,0.32
17,GGGGCCACGTGACGGT,-0.01
18,CGTAGCACGTGTGAGG,0
19,GTATTCACGTGCATTG,0.36
20,AATGACACGTGTGAGA,0.12
21,AACTGCACGTGGAGTT,0.11
22,GCGATCACGTGGGTTT,0.17
23,GTAGTCACGTGGCGGG,0.18
24,TGGCACACGTGTGGAG,-0.06
25,AAATGCACGTGTTTGG,-0.05
26,TGATTCACGTGAGGCG,0.2

row,Sequence,relative binding free energy [kcal/mol]
1,TTCGGCACGTGGTAGT,-0.09
2,TTTGGCACGTGAGAGT,0.16
3,TGTTACACGTGAAAGC,0.45
4,GTTTTCACGTGATCGA,0.41
5,TCGGTCACGTGTTATT,0.25
6,AAGAACACGTGTTGTG,-0.14
7,GGTAGCACGTGTAGGT,-0.07
8,GGGTGCACGTGGTAAT,0
9,GAGGTCACGTGGTATA,0.13
10,AGAGACACGTGGGGAT,0.03
11,GTGTCCACGTGAGTGT,0.08
12,ATTAGCACGTGGTAGT,-0.09
13,TGTGCCACGTGGGGTA,-0.42
14,TTTTTCACGTGGGCAA,0.23
15,GAGCGCACGTGGGCGT,-0.2
16,TGAAACACGTGGTATG,-0.12
17,TCTGACACGTGGTGAG,-0.02
18,TGTGGCACGTGTAGAG,-0.13
19,TAGAACACGTGGGTAT,-0.14
20,GGATACACGTGCAGTT,0.22
21,GGGGACACGTGGCGTT,0.04
22,CGTCTCACGTGGGTTG,0.11
23,ATTGACACGTGGGAAG,0.07
24,TGTGTCACGTGGCTAT,-0.02
25,ATTCTCACGTGCTTTT,0.22
26,TGTTGCACGTGAGCAT,0.21

row,Sequence,relative binding free energy [kcal/mol]
1,GTTTCCACGTGTGGGT,0.11
2,AGGGACACGTGGATGG,-0.04
3,TTTGGCACGTGACGAG,0.04
4,GGGGCCACGTGATATT,0.15
5,GAATGCACGTGGTGTC,-0.08
6,ACTGACACGTGAGGGG,0.14
7,AGCTACACGTGAGGTT,0.3
8,GTGGACACGTGGTGCG,0.07
9,CGCGGCACGTGGTTTG,-0.15
10,TGGTGCACGTGCTTCG,0.01
11,CGGGACACGTGGGAAT,0.07
12,AATTGCACGTGTTGAA,0.04
13,AAGTCCACGTGGGTTA,-0.07
14,CTTGGCACGTGCAGGA,-0.05
15,GGTTGCACGTGATCTG,0.08
16,TGGAGCACGTGGACGA,-0.03
17,TGCGTCACGTGGTGTG,0.08
18,TTTCTCACGTGATTTG,0.36
19,CGTTCCACGTGGCGGT,-0.03
20,AATGTCACGTGTTCGG,-0.07
21,AAGGTCACGTGGGTAA,-0.15
22,GGGCCCACGTGTCGGG,0.02
